The campaign covered roughly 150,000 compounds. About 540 (0.36%) showed an effect of 50% or more. The list shows a part of the results.
tested on: Plasmodium falciparum; assay: Primary screen in NF54 nanoGlo assay, in single point, at 2uM, 72h; a lower Z score goes with more inhibition; format: functional, Erythrocyte; conditions: timepoint 72 hour

SMILES | % Inhibition | Z score
CC1(C#N)CCCN(CC(O)CN2CCCC(C)(C#N)C2)C1 (stereo unspecified) | 2% | -0.26
Cn1cc(C(=O)NCC2CCN(C(=O)c3ccc(-c4nc(C5CC5)n[nH]4)cc3)CC2)cn1 | -15% | 2.36
CCc1nn(C)c(Cl)c1CN1CCC[C@H]1c1nccs1 | -9% | 1.04
Fc1cc(CNc2nncc(-c3ccc4c(c3)OCO4)n2)cc(C(F)(F)F)c1 | 3% | -0.6
Cc1ccc(-n2ncc3c(=O)n(CC(=O)N4CCCc5ccccc54)cnc32)c(C)c1 | 10% | -1.34
CCN(CCCCO)C(=O)Nc1ccc(F)c(C)c1 | -13% | 1.95
CCN(Cc1nc(C)no1)C(=O)Nc1cc(-c2nnn(C)n2)ccc1C | 0% | 0.09
CCOC(=O)[C@H]1CCCN(Cn2nc(Cc3ccc(OC)cc3)oc2=S)C1 | -5% | 0.69
CC1CN(C(=O)Cn2cc(C3CC3)nn2)CC(C)N1 (stereo unspecified) | 4% | -0.73
Cc1nc(C)c(CN2CCC[C@H](C(=O)Nc3ccc(-c4ccco4)cc3)C2)nc1C | 2% | -0.39
Cc1noc(C)c1CN(C)C(=O)[C@H](CC(C)C)NS(C)(=O)=O | -13% | 1.99
Cc1cc(C(=O)NCc2cccnc2Oc2ccc(F)c(F)c2)nc(N)n1 | -12% | 1.36
COc1nc(C)cc(N2CCN(c3ccc(C(=O)O)cc3)C[C@@H]2C)n1 | -3% | 0.44
Cc1nocc1NC(=O)NC[C@](C)(O)c1cccc(F)c1 | -6% | 0.9
C[C@@H](C1CCN(C(=O)c2ccc(-c3ccco3)cc2)CC1)N1CCN(C)CC1 | 3% | -0.59
CC(=O)c1cc(C(=O)N2C(C)CN(C(=O)C(C)(C)C)CC2C)n(C)c1 (stereo unspecified) | -25% | 2.32
COc1cccc(NC(=O)Cn2cc(-c3noc(-c4ccncc4)n3)nc2C)c1 | -9% | 1.2
Cc1nc(-c2cc(S(=O)(=O)N(C)Cc3ccco3)c(C)n2C)sc1C(=O)N1CCCCC1 | 5% | -0.73
O=C(CN1C[C@H]2CC[C@H]1C2)N1CCN(C(=O)c2ccccc2)CC1 | 17% | -2.13
CCC[C@H](NC(=O)Cc1cc(C)no1)c1cccs1 | 16% | -2.05
COCCN1C(=O)[C@@H]2CC[C@H]1CN(C(=O)c1[nH]c3ccc(C)cc3c1C)C2 | -12% | 1.57
N#Cc1cccc(CN2Cc3nc[nH]c3C[C@H]2C(=O)NCc2ccco2)c1 | -5% | 0.75

SMILES | % Inhibition | Z score
CC(C)(C#Cc1ccc(Br)cc1)OC(=O)Nc1cccc2ccccc12 | -18% | 2.36
CC(C)(F)C(=O)N[C@H](Cc1ccccc1)C(=O)Nc1ccccc1 | -7% | 0.79
Cc1nccn1CCCn1ncn2cccc2c1=O | -20% | 2.32
Cc1ccc(F)cc1C(=O)N1C[C@@H]2[C@@H](CN(C)C)[C@@H]2C1 | -3% | 0.35
CN(C(=O)C1CC1c1ccccc1C(F)(F)F)C1(C#N)CCC1 (stereo unspecified) | -7% | 1.28
C=C[C@H]1OCC[C@@H]1CNC(=O)NCc1ccc2occc2c1 | -10% | 1.88
Cc1ccsc1CN(Cc1cccnc1)CC(C)C | -9% | 0.87
Cc1cc(NC(=O)N[C@H]2CC[C@@H](C(=O)O)C2)n(-c2ccc(C(F)(F)F)cn2)n1 | -12% | 1.27
CN(C)CCN(C[C@H]1CCCO1)C(=O)c1ccncc1 | -7% | 1.08
COc1ccc(-c2nc3c(cnn3C3CCCC3)[nH]2)c(F)c1F | -3% | 0.43
CCNC(=O)C(=O)NC[C@](O)(c1ccoc1)c1ccco1 | -7% | 1.06
N#C[C@@H]1CN(C(=O)c2ccc(O)c(Cl)c2)CCN1C1CC1 | -8% | 0.95
Cc1ccc(Cl)cc1CN=C(N)N(C)C | -2% | 0.21
Cc1[nH]c2ccc(CNc3nc(Cc4ccc(Cl)cc4Cl)nc4c3nnn4C)cc2c1C | -7% | 0.87
O=C1CCCN1Cc1cccc(-c2nc(-c3ccsc3)no2)c1 | -6% | 1.1
CCN1C[C@]2(CCCN(C(=O)c3ccc4cccnc4c3O)C2)CCC1=O | 2% | -0.49
COc1ccc2cc([C@H](C(=O)O)N(C)Cc3ccon3)ccc2c1 | 3% | -0.46
C[C@H]1CN(Cc2cnn(CC(F)F)c2)c2cccc(F)c2O1 | -9% | 1.42
O=C(c1ccncc1)N1N=C2CCCCCC2C1(O)C(F)(F)F (stereo unspecified) | -27% | 2.86
Cc1ccc2oc(N3C[C@@H]4OC(=O)N(Cc5ccccn5)[C@@H]4C3)nc2c1 | -16% | 2.18
CC(C)(C)NC(=O)[C@@H]1CC[C@](C)(C(=O)O)C1(C)C | 0% | 0.02

From ChEMBL document CHEMBL4888484, “Replenishing the malaria drug discovery pipeline: Screening and hit evaluation of the MMV Hit Generation Library 1 (HGL1) against asexual blood stage Plasmodium falciparum ,using a nano luciferase reporter read-out” (2022)
